Source: publication PMC4336329 (PLoS ONE, 2015)
Out of some 310,000 compounds screened, about 14,000 (4.5%) showed an effect of 50% or more. The effect is printed as a negative number. Some of the results follow.

These molecules were tested against human ether-à-go-go-related gene (hERG) potassium channel (human, UniProt Q12809) (assay: primary screen, population patch clamp on CHO cells stably expressing hERG).
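Also: peak tail current of the secondary pulse compared with the same well before compound.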

Chain of human ether-à-go-go-related gene (hERG) potassium channel (Q12809 whole entry, looked up): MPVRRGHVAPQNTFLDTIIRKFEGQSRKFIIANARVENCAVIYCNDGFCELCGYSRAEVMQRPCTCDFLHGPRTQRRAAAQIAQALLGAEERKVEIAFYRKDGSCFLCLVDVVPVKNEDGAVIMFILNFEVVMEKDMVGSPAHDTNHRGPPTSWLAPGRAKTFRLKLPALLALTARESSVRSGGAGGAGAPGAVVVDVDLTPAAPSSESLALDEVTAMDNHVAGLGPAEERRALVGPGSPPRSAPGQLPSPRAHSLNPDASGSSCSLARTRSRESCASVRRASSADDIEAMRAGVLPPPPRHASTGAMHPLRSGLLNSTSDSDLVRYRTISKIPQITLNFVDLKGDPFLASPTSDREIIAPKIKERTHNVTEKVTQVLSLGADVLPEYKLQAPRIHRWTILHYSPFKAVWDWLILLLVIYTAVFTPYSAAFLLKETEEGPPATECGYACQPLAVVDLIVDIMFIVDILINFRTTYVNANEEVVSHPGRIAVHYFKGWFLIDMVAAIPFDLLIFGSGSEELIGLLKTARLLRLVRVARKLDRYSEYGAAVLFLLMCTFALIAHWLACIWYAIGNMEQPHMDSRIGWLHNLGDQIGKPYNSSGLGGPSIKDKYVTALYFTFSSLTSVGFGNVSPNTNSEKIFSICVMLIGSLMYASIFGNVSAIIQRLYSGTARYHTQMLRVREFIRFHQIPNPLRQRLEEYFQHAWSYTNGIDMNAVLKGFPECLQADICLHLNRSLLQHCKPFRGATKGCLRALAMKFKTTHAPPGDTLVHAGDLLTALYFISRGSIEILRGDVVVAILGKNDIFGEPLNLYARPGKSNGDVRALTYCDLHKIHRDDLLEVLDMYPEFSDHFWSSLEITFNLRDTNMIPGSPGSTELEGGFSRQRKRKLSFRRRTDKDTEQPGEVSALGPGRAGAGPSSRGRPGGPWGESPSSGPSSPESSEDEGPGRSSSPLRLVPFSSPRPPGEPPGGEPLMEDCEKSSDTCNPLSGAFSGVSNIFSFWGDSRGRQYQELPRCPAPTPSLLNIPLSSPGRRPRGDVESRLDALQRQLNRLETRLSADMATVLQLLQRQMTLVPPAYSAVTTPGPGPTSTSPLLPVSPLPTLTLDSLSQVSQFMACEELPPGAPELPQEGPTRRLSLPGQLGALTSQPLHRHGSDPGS

Row | SMILES | hERG current change (%, negative = inhibition) at 10uM [%]
1 | COc1ccc(C(=O)N2CCCN(C)CC2)c(OC)c1 | -5.24
2 | O=C(Nc1nc2cc3c(cc2s1)OCCO3)c1ccc([N+](=O)[O-])o1 | -8.07
3 | COc1ccc(OC)c(N2Cc3ccccc3C2)c1 | 12
4 | Cc1cccc(N(CC(=O)NCCSCc2ccccc2)S(C)(=O)=O)c1C | -17.4
5 | COc1cccc(-c2sc3ccc(OC)cc3c2C#CCCO)c1 | -7.87
6 | CCN1C(=O)C(C)S/C1=N\S(=O)(=O)c1ccc(Cl)s1 (stereo not drawn) | 13.5
7 | O=C(N=C1SC2CS(=O)(=O)CC2N1c1ccc(F)cc1F)C1CC1 (stereo not drawn) | 2.47
8 | COCCCN1C(=O)c2ccc(C(=O)OCC(=O)NCc3ccccc3OC)cc2C1=O | -3.94
9 | COc1ccccc1N1CCN(C2CCCN(C(=O)CC(F)(F)F)C2)CC1 (stereo not drawn) | 12.4
10 | O=C(Nc1cccc(Cl)c1)Nc1ccccc1-n1ccnc1 | -18.4
11 | Cc1cc(C)c(-n2c(SCCS(=O)(=O)c3ccc(F)cc3)n[nH]c2=O)c(C)c1 | 5.41
12 | O=C1N(c2ccc(Cl)cc2)C(c2cccnc2)N2CCCN12 (stereo not drawn) | 8.15
13 | NC(=O)C1CCN(C(=O)c2cc3n(n2)C(C(F)(F)F)CC(c2ccco2)N3)CC1 (stereo not drawn) | 14.8
14 | O=C(N/N=C/c1c(O)n(CCc2ccccc2)c(=O)[nH]c1=O)c1ccccc1 | 4.38
15 | COc1cccc(NS(=O)(=O)c2ccc(Br)s2)c1 | -12.6
16 | Cc1nc(NC(=O)CSc2nnc(-c3ccc4c(c3)OCO4)o2)c(Cl)cc1Cl | -17.2
17 | CCC(C)Nc1nc(N)c([N+](=O)[O-])c(N2CCCCCC2)n1 (stereo not drawn) | 10.1
18 | O=C(CCN1C(=O)c2ccccc2C1=O)NCc1ccncc1 | -4.61
19 | CC(C)NCCOCCOc1ccc(Cl)cc1Br.O=C(O)C(=O)O | -32.2
20 | CCOc1ccc(C(=O)NCC(=O)N2CCN(C/C=C/c3ccccc3)CC2)cc1OCC | -41.7
21 | CC1=Nc2ccccc2N=C(NC(=O)CN2CCN(c3ccc(F)cc3)CC2)C1c1ccccc1 (stereo not drawn) | -0.775
22 | Cc1ccc(NC(=O)CN2CCN(Cc3ccccc3)CC2)c(Br)c1.Cl | -72.5
23 | Cn1c2ccc(F)cc2c2ncn(CC3CCCO3)c(=O)c21 (stereo not drawn) | 6.05

Row | SMILES | hERG current change (%, negative = inhibition) at 10uM [%]
24 | CCOC(=O)c1ccc(NC(=O)C(C)Sc2nc(O)c(-c3ccccc3)c(=O)[nH]2)cc1 (stereo not drawn) | 23.8
25 | Cc1ccc(-c2cc(C(=O)N3CCCc4ccccc43)no2)cc1 | -75.6
26 | Cc1cccc(NC(=S)NNC(=O)c2cccc([N+](=O)[O-])c2)c1 | 26.4
27 | COc1ccc(N2CC(NC(=O)c3ccc4ccccc4c3)CC2=O)cc1OC (stereo not drawn) | -24
28 | CN(Cc1c[nH]c2ccccc12)C1CCCCC1 | -3.54
29 | O=C1c2cccc3cccc(c23)C(=O)N1c1ccccn1 | -0.425
30 | CSc1nc2cc(Oc3cccc(Cl)c3Cl)c(Cl)cc2[nH]1 | 8.71
31 | CCOc1ccc(C(=O)/C=C/c2cc(OC)c(OC)c(OC)c2)cc1 | -12.6
32 | CC(=O)c1cccc(NC(=O)N2CCCc3ccccc32)c1 | -11.8
33 | C=CCSC1=NN2CCS(=O)(=O)N=C2S1 | 13.4
34 | O=C(CSc1nncs1)N1c2ccccc2Sc2ccccc21 | 6.14
35 | CC(C)Cn1c(SCc2nc3ccccc3c(=O)[nH]2)nc2ccccc2c1=O | -0.541
36 | CC(NC(=O)c1ccc(F)cc1)c1ccccc1 (stereo not drawn) | -6.64
37 | CCc1ccc(C(=O)COC(=O)c2ccco2)cc1 | 9.18
38 | CCOC(=O)C1CCCN(Cc2ccc(OC)cc2OC)C1 (stereo not drawn) | -52.7
39 | C/C(=N\NC(N)=O)c1c(F)cccc1F | 9.8
40 | O=C(NC1CCCc2ccccc21)c1cccc(S(=O)(=O)N2CCOCC2)c1 (stereo not drawn) | 29.4
41 | O=C1CCCN2N=C(SCC(=O)Nc3nccs3)SC2=N1 | 4.77
42 | CN(Cc1ncc[nH]1)C(=O)c1cc(COc2c(F)cccc2F)on1 | -4.68
43 | COCCn1c(=S)[nH]c2sc3c(c2c1=O)CCC(C)C3 (stereo not drawn) | 2.51
44 | Cc1ccc(Nc2nc(/N=C/N(C)C)n[nH]2)cc1C | -12.5
45 | Cc1nc2c(cc1C#N)C(=O)c1ccccc1-2 | -13.2
46 | CCOCCCNC(=O)CN1C(=O)COc2ccc(S(=O)(=O)N3CCC(C)CC3)cc21 | 6.25

Row | SMILES | hERG current change (%, negative = inhibition) at 10uM [%]
47 | CC1=NCCN1S(=O)(=O)c1cc(Cl)ccc1Cl | 2.09
48 | COc1ccc(CNc2ccc(-c3ccccc3OC)nn2)cc1 | -13.1
49 | CCOC(=O)c1ccccc1NC(=O)/C(C)=C/C(=O)O | -2.16
50 | Cn1c(SCC(=O)N2CCCCCC2)nc2c([nH]c3ccccc32)c1=O | 6.91
51 | Clc1ccc(Nc2ccc(Cl)nn2)cc1 | 23.7
52 | Cc1cc(C)cc(-n2c(O)c(C=Nc3ccc(N4CCOCC4)cc3)c(=O)[nH]c2=S)c1 | -17.2
53 | Cc1occc1-c1nnc(SCC(=O)Nc2ccc(F)cc2)n1Cc1ccccc1 | -49.4
54 | Cc1ccc(CN2C(=O)CCC2C(=O)NCCCN2CCOCC2)cc1 (stereo not drawn) | 25.6
55 | CC(C)N(C(C)C)S(=O)(=O)c1ccc(Cl)nc1 | 4.68
56 | COc1ccccc1-c1cn[nH]c1-c1ccc(OCC(=O)NN)cc1O | 9.17
57 | COc1cccc(CN(c2ccc3c(c2)CCC3)S(=O)(=O)c2ccc(-n3cnnn3)c(OC)c2)c1 | 21.2
58 | COc1ccc(CCN(C)Cc2ccc(OC)c(OCc3ccccc3)c2)cc1OC | -81.6
59 | CC(=O)C[C@H]1c2cc(F)ccc2S(=O)(=O)N1c1ccc(N(C)C)cc1 | 6.36
60 | CC(C)c1ccc(O)c(NC(=S)NC(=O)CCc2ccccc2)c1 | 17
61 | O=C(C(c1ccccc1)c1ccccc1)N1CCN(c2ccccn2)CC1 | 5.55
62 | CC(C)(CNC(=O)c1cccc(NS(=O)(=O)c2ccc(Br)cc2)c1)N1CCOCC1 | -33.7
63 | CCCOC(=O)CCc1n[nH]c(=O)[nH]c1=O | 6.02
64 | CCNc1nc(NC(C)C)nc(N(n2cnnc2)S(=O)(=O)c2ccc(C)cc2)n1 | -25.1
65 | COC(=O)/C(C#N)=C/c1c(N2CCN(C)CC2)nc2ccccn2c1=O | 11.1
66 | Cc1cccc(NS(=O)(=O)c2cc3c4c(c2)CCN4C(=O)CC3)c1C | -0.992
67 | CCN(CC)C(=S)SCC(=O)c1ccccc1 | -0.159
68 | CC1CCN(S(=O)(=O)N2CCC(C(=O)O)CC2)CC1 | 24.4
69 | C=CCn1c(O)c2ccc(C(=O)N=NC(=O)COc3ccccc3F)cc2c1O | 19.4

Row | SMILES | hERG current change (%, negative = inhibition) at 10uM [%]
70 | C/C(=N\NC(=O)Cn1ccc(C(F)(F)F)n1)c1ccc(N2CCOCC2)cc1 | 6.48
71 | Cl.c1coc(CN(Cc2cccs2)Cc2nnnn2C2CCCCC2)c1 | -1.8
72 | O=C(NCCc1ccccn1)c1cc(-c2ccccc2Cl)nc2ccccc12 | -2.8
73 | CCOc1cc(/C=N\NC(N)=O)cc(Br)c1OC(C)C | -19.8
74 | CC(OC(=O)c1nsc(Cl)c1Cl)C(=O)NCCc1ccccc1 (stereo not drawn) | -65.4
75 | CC(OC(=O)CC(NC(=O)c1ccccc1Cl)c1ccccc1)C(=O)Nc1cccc(Cl)c1Cl (stereo not drawn) | -14.7
76 | CCNc1ccc(S(=O)(=O)C(F)(F)F)cc1NC(=O)C12CCC(CC1)C2 | 15.8
77 | O=C(CCC(=O)Nc1ccccc1)N/N=C/c1ccc2c(c1)OCO2 | 28.7
78 | Cn1cc(CN2CCC(C(=O)Nc3ccc(Oc4ccccc4F)cc3)CC2)cn1 | -65.6
79 | CC(SCCc1ccccn1)C(=O)O (stereo not drawn) | -3.91
80 | Cc1nccn1CC(O)COc1ccc(Cl)cc1Cl (stereo not drawn) | -49.6
81 | CCC(=O)NC(/C=C/c1ccccc1)c1cc([N+](=O)[O-])c2cccnc2c1O (stereo not drawn) | 21.5
82 | CN1C/C(=C\c2ccc(N3CCOCC3)cc2)C(=O)/C(=C/c2ccc(N3CCOCC3)cc2)C1 | -4.91
83 | COC(=O)c1sc(S(=O)(=O)Nc2ccc3cn[nH]c3c2)c(C(=O)OC)c1C | 6.26
84 | COc1cccc(NC(=O)c2cccs2)c1 | -1.18
85 | CCC1(CC)NC(=O)N(CC(=O)OCC(=O)Nc2ccc(C(F)(F)F)cc2)C1=O | 1.14
86 | Cc1ccc(-c2n[nH]c(=O)c3ccccc23)cc1S(=O)(=O)Nc1ccccc1 | -0.992
87 | C=CCn1c(C)nnc1SCC(=O)Nc1nc(C)c(C(=O)N(C)C)s1 | -0.903
88 | COc1ccc(NC(=O)C2CCN(S(=O)(=O)c3cccc4cccnc34)CC2)cc1 | 5.62
89 | FC(F)(F)c1cc(-c2ccco2)nc(-n2nc(C(F)(F)F)cc2C2CC2)n1 | 2.87
90 | Cc1ccc(C(=O)Nc2ccn(Cc3ccc(F)cc3)n2)o1 | -25.3
